MIC of clinical N. gonorrhoeae isolates (2015-2017) by agar dilution on GC agar with 1% IsoVitaleX (ranges not stated); higher = less susceptible. No active / inactive call per row; the paper counts benzylpenicillin above 1 and ceftriaxone above 0.125 mg/L as resistant (EUCAST). The method is stated for benzylpenicillin and ceftriaxone and assumed for the other drugs. '<=' is inferred from pile-ups at the end values. Isolates are numbered anew.
Assays:
Assay in all cases: Agar dilution on enriched GC agar; resistance determinants by microarray.
spectinomycin = compound: CN[C@@H]1[C@H](O)[C@H](NC)[C@H]2O[C@@]3(O)C(=O)C[C@@H](C)O[C@H]3O[C@@H]2[C@H]1O [spectinomycin]
tetracycline = compound: CN(C)[C@@H]1C(O)=C(C(N)=O)C(=O)[C@@]2(O)C(O)=C3C(=O)c4c(O)cccc4[C@@](C)(O)[C@H]3C[C@@H]12 [tetracycline]
benzylpenicillin = compound: CC1(C)S[C@@H]2[C@H](NC(=O)Cc3ccccc3)C(=O)N2[C@H]1C(=O)O [benzylpenicillin]
ceftriaxone = compound: CO/N=C(\C(=O)N[C@@H]1C(=O)N2C(C(=O)O)=C(CSc3nc(=O)c(O)nn3C)CS[C@H]12)c1csc(N)n1 [ceftriaxone]
azithromycin = compound: CC[C@H]1OC(=O)[C@H](C)[C@@H](O[C@H]2C[C@@](C)(OC)[C@@H](O)[C@H](C)O2)[C@H](C)[C@@H](O[C@@H]2O[C@H](C)C[C@H](N(C)C)[C@H]2O)[C@](C)(O)C[C@@H](C)CN(C)[C@H](C)[C@@H](O)[C@]1(C)O [azithromycin]

Test System | MIC (spectinomycin) [µg/mL] | MIC (tetracycline) [µg/mL] | MIC (benzylpenicillin) [µg/mL] | MIC (ceftriaxone) [µg/mL] | MIC (azithromycin) [µg/mL]
Neisseria gonorrhoeae isolate 290 (blaTEM plasmid: no, gyrA: wild type, mtrR promoter: wild type, parC: wild type, penA: wild type, ponA: wild type, porB: Asn120, Asp121, rpsJ: wild type, tetM plasmid: no) | 32 | 0.25 | ≤ 0.015 | ≤ 0.002 | 0.5
Neisseria gonorrhoeae isolate 39 (blaTEM plasmid: no, gyrA: wild type, mtrR promoter: wild type, parC: wild type, penA: wild type, ponA: wild type, porB: wild type, rpsJ: wild type, tetM plasmid: no) | 32 | 0.5 | ≤ 0.015 | ≤ 0.002 | 0.12
Neisseria gonorrhoeae isolate 219 (blaTEM plasmid: no, gyrA: wild type, mtrR promoter: wild type, parC: wild type, penA: ins345Asp, ponA: Pro421, porB: wild type, rpsJ: Met57, tetM plasmid: no) | 4 | 0.25 | 0.12 | ≤ 0.002 | 0.06
Neisseria gonorrhoeae isolate 464 (blaTEM plasmid: no, gyrA: Phe91, Gly95, mtrR promoter: wild type, parC: Arg87, Glu91, penA: ins345Asp, ponA: Pro421, porB: Asp120, Ala121, rpsJ: Met57, tetM plasmid: no) | 32 | 1 | 0.25 | 0.008 | 0.06
Neisseria gonorrhoeae isolate 49 (blaTEM plasmid: no, gyrA: wild type, mtrR promoter: wild type, parC: wild type, penA: wild type, ponA: wild type, porB: wild type, rpsJ: wild type, tetM plasmid: no) | 16 | 0.12 | ≤ 0.015 | ≤ 0.002 | 0.12
Neisseria gonorrhoeae isolate 403 (blaTEM plasmid: no, gyrA: Phe91, Gly95, mtrR promoter: -35delA, parC: Arg87, Glu91, penA: ins345Asp, ponA: Pro421, porB: Lys 120, Asn 121, rpsJ: Met57, tetM plasmid: no) | 32 | 2 | 0.5 | 0.016 | 0.03
Neisseria gonorrhoeae isolate 405 (blaTEM plasmid: no, gyrA: wild type, mtrR promoter: wild type, parC: wild type, penA: ins345Asp, ponA: wild type, porB: wild type, rpsJ: wild type, tetM plasmid: no) | 32 | 0.5 | 0.06 | ≤ 0.002 | 0.5
Neisseria gonorrhoeae isolate 423 (blaTEM plasmid: no, gyrA: Phe91, Gly95, mtrR promoter: -35delA, parC: Arg87, Glu91, penA: ins345Asp, ponA: Pro421, porB: Lys 120, Gly121, rpsJ: Met57, tetM plasmid: no) | 32 | 2 | 1 | 0.06 | 0.06
Neisseria gonorrhoeae isolate 506 (blaTEM plasmid: no, gyrA: wild type, mtrR promoter: wild type, parC: wild type, penA: wild type, ponA: wild type, porB: wild type, rpsJ: wild type, tetM plasmid: no) | 32 | 0.25 | ≤ 0.015 | ≤ 0.002 | 0.12
Neisseria gonorrhoeae isolate 441 (blaTEM plasmid: no, gyrA: wild type, mtrR promoter: wild type, parC: wild type, penA: wild type, ponA: wild type, porB: wild type, rpsJ: wild type, tetM plasmid: no) | 8 | 0.06 | 0.03 | ≤ 0.002 | 0.12
Neisseria gonorrhoeae isolate 402 (blaTEM plasmid: no, gyrA: Phe91, Asn95, mtrR promoter: -35delA, parC: Ser87, Gly91, penA: ins345Asp, ponA: Pro421, porB: Lys 120, Asn 121, rpsJ: Met57, tetM plasmid: no) | 32 | 0.5 | 0.12 | 0.008 | 0.25
Neisseria gonorrhoeae isolate 72 (blaTEM plasmid: no, gyrA: wild type, mtrR promoter: wild type, parC: wild type, penA: wild type, ponA: wild type, porB: wild type, rpsJ: wild type, tetM plasmid: no) | 16 | 0.06 | ≤ 0.015 | ≤ 0.002 | 0.06
Neisseria gonorrhoeae isolate 494 (blaTEM plasmid: no, gyrA: Phe91, Asn 95, mtrR promoter: wild type, parC: Ser87, Gly 91, penA: ins345Asp, ponA: Pro421, porB: wild type, rpsJ: Met57, tetM plasmid: no) | 32 | 1 | 0.25 | 0.008 | 0.25
Neisseria gonorrhoeae isolate 255 (blaTEM plasmid: no, gyrA: Phe91, Asn 95, mtrR promoter: -35delA, parC: wild type, penA: ins345Asp, ponA: Pro421, porB: Asn120, Asp121, rpsJ: Met57, tetM plasmid: no) | 8 | 0.5 | 1 | 0.03 | 0.25
Neisseria gonorrhoeae isolate 495 (blaTEM plasmid: no, gyrA: Phe91, Gly95, mtrR promoter: -35delA, parC: Arg87, Glu91, penA: ins345Asp, ponA: Pro421, porB: Asn120, Asp121, rpsJ: Met57, tetM plasmid: no) | 32 | 2 | 0.5 | 0.008 | 0.03
Neisseria gonorrhoeae isolate 304 (blaTEM plasmid: no, gyrA: Thr91, Gly95, mtrR promoter: wild type, parC: wild type, penA: wild type, ponA: wild type, porB: wild type, rpsJ: wild type, tetM plasmid: no) | 32 | 0.25 | 0.25 | 0.004 | 0.12
Neisseria gonorrhoeae isolate 230 (blaTEM plasmid: no, gyrA: Phe91, Ala 95, mtrR promoter: wild type, parC: Arg 87, Glu91, penA: ins345Asp, ponA: wild type, porB: Asp120, Gly121, rpsJ: Met57, tetM plasmid: yes) | 16 | 4 | 0.06 | ≤ 0.002 | 0.03
Neisseria gonorrhoeae isolate 56 (blaTEM plasmid: no, gyrA: Phe91, Asn95, mtrR promoter: wild type, parC: Arg87, Glu91, penA: ins345Asp, ponA: Pro421, porB: wild type, rpsJ: Met57, tetM plasmid: no) | 16 | 0.25 | 0.5 | 0.004 | 0.12
Neisseria gonorrhoeae isolate 273 (blaTEM plasmid: no, gyrA: wild type, mtrR promoter: wild type, parC: wild type, penA: ins345Asp, ponA: wild type, porB: Asp120, Ala121, rpsJ: Met57, tetM plasmid: no) | 32 | 2 | 1 | 0.008 | 0.015
Neisseria gonorrhoeae isolate 160 (blaTEM plasmid: no, gyrA: Phe91, Asn95, mtrR promoter: wild type, parC: wild type, penA: ins345Asp, ponA: Pro421, porB: Asp120, Gly121, rpsJ: Met57, tetM plasmid: no) | 16 | 4 | 0.06 | ≤ 0.002 | 0.03
Neisseria gonorrhoeae isolate 458 (blaTEM plasmid: no, gyrA: Thr91, Gly95, mtrR promoter: wild type, parC: wild type, penA: ins345Asp, ponA: Pro421, porB: wild type, rpsJ: Met57, tetM plasmid: no) | 12 | 0.5 | 0.5 | 0.015 | 0.06
Neisseria gonorrhoeae isolate 106 (blaTEM plasmid: no, gyrA: Phe91, Asn95, mtrR promoter: -35delA, parC: Ile87, Glu91, penA: ins345Asp, ponA: Pro421, porB: Lys 120, Gly121, rpsJ: Met57, tetM plasmid: no) | 16 | 2 | 0.5 | 0.015 | 0.25

Reference: the supplement of paper PMC6657886
